Results on 85 compounds are retold here after PMC4336329 (PLoS ONE, 2015).

The structures appear in SMILES notation. Among all 310,000 compounds or so, about 2,200 (0.71%) showed an effect of 50% or more. The effect is printed as a negative number. This is one part of the list.

For this assay, the target named is human ether-à-go-go-related gene (hERG) potassium channel (human, UniProt Q12809). Briefly: primary screen, population patch clamp on CHO cells stably expressing hERG.
human ether-à-go-go-related gene (hERG) potassium channel, sequence (Q12809 whole entry, looked up): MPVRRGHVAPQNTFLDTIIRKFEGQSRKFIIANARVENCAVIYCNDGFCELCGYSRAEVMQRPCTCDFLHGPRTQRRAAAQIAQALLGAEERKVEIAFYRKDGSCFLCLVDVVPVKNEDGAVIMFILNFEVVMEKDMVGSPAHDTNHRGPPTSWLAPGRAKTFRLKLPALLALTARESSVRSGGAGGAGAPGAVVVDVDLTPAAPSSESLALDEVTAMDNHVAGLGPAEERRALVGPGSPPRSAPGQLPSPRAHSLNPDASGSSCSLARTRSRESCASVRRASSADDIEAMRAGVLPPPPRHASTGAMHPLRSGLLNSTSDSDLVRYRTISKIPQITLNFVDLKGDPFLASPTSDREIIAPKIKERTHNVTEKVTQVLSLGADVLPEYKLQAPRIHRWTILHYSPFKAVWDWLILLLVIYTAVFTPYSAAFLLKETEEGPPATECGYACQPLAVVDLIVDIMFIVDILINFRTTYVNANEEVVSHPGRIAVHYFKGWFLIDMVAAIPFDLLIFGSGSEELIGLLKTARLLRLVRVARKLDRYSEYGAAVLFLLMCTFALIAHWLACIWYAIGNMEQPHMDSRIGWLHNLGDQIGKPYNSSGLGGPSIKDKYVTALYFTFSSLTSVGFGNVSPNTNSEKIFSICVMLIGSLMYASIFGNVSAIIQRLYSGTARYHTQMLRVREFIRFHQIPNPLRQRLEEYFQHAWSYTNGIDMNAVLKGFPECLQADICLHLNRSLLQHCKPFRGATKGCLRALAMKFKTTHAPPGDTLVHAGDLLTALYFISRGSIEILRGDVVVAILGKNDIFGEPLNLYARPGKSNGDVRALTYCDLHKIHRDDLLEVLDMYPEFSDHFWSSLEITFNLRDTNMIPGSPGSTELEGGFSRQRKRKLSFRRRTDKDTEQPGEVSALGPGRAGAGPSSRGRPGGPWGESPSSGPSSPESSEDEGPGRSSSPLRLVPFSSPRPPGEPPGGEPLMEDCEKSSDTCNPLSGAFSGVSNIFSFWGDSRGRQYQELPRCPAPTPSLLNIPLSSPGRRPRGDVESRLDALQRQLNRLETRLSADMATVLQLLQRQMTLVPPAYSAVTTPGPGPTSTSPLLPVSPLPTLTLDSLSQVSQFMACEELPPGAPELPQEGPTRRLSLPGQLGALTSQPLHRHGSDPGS
`COc1ccc(S(=O)(=O)n2nc(C)cc2C)cc1OC`: the “hERG current change (%, negative = inhibition) at 1uM” value turned out to be 4.44%.
For `COc1ccc(CC2(C)OC(c3ccccc3)=NN2C(C)=O)cc1` (stereo not shown) the value was -6.7%; for `CCOC(=O)C(NC(=O)CC)(Nc1sc2c(c1C(=O)OC)CCN(C)C2)C(F)(F)F` (stereo not shown), 3.48%; for `O=C(Cn1cc(C(=O)C(F)(F)F)c2ccccc21)Nc1ccccc1F`, 11%.
Then `Cc1ccccc1OCC(=O)NCC(c1ccco1)N1CCCCC1` (stereo not shown), with -11.6%; and `COc1ccc(CCNC(=O)c2nnn(CC(=O)Nc3ccc(C)cc3C)c2N)cc1OC`, with 10.8%; and `Cc1csc(SCC(=O)NC(C)C2CC3CCC2C3)n1` (stereo not shown), with 19.9%.
As to `Cc1nn(C(=O)CCCC(=O)NCc2ccccc2)c2ccccc12`, the “hERG current change (%, negative = inhibition) at 1uM” value is given as 11.8%.
On to `COCc1c(C(=O)OC/C(O)=C(\C#N)c2nc3ccccc3[nH]2)oc2ccccc12`, for which the “hERG current change (%, negative = inhibition) at 1uM” value came to 18%.
For `Cc1cc(C(=O)CSc2nnc(-c3cccc(F)c3)n2N)c(C)n1Cc1ccc2c(c1)OCO2` the value was 12%.
In the case of `Cc1ccc(CNC(=O)C2CC3Cn4c(nc5cc(C)c(C)cc54)C3N2C)o1` (stereo not shown), the “hERG current change (%, negative = inhibition) at 1uM” value is on record as -0.478%.
For `O=S1(=O)N=C(Nc2nc3c(s2)CCCC3)c2ccccc21` the value was 3.74%; for `C#CC1(NC(=O)N(C)C)CCCCC1`, 3.48%; for `Cc1cc(C)cc(N2C(=O)CC(Sc3ccccc3C(=O)O)C2=O)c1` (stereo not shown), 11.8%.
For `Brc1cc(-c2ccccc2)nc(-c2ccccc2)n1` the value was 5.97%; for `CN(CCc1ccccn1)C(=O)CCC1CCCN(C(=O)c2cccc(N(C)C)c2)C1` (stereo not shown), 18.4%; for `CCOC(=O)c1cnc2ccc(C)cc2c1OCc1cc(F)cc(F)c1`, -0.796%.
For `CNc1nc(-c2ccc3c(c2)CCN3S(=O)(=O)c2ccccc2)c(C)s1` the value was 7.96%; for `COc1ccc(CN2C(=O)NC(=O)/C(=C\c3ccc(OC)c(OC)c3OC)C2=O)cc1`, 14%; for `CCOC(=O)C1=C(c2ccccc2)Nc2ncnn2C1c1cc(OC)cc(OC)c1OC` (stereo not shown), 2.97%.
On to `O=Nc1[nH]c(=O)c(/C=C(\O)c2ccccc2)nc1NO`, for which the “hERG current change (%, negative = inhibition) at 1uM” value worked out at 10.2%.
On to `COc1ccc(C2=NN3C(=O)c4c(ccc(OC)c4OC)C3C2)cc1` (stereo not shown), for which the “hERG current change (%, negative = inhibition) at 1uM” value was -1.75%.
Then `CC(=O)C1=C(O)C(=O)N(Cc2ccccc2)C1c1ccc([N+](=O)[O-])cc1` (stereo not shown), with 13.2%; and `CCOC(=O)C1=C(C)N(C)C(=O)NC1c1cccc(O)c1` (stereo not shown), with 9.71%.
`CC1CN(c2ccc([N+](=O)[O-])nc2)CC(C)O1` (stereo not shown): the “hERG current change (%, negative = inhibition) at 1uM” value is reported as 8.84%.
Then `COc1ccc(OCCCCn2c(CO)nc3ccccc32)cc1`, with -0.942%; and `CCOC(=O)c1ccccc1NC(=O)c1cccc([N+](=O)[O-])c1`, with 11.3%.
Take `O=C(O)CCCCCNC(=O)/C(=C\c1ccco1)NC(=O)c1ccco1`: the “hERG current change (%, negative = inhibition) at 1uM” value came out at 9.28%.
For `C[C@@H]1CC[C@]2(O[C@H](CCO)C[C@H](O)[C@H]2O)O1` the value was 5.98%; for `CN(C(=O)CSc1nnc(N)s1)c1c(N)n(Cc2ccccc2)c(=O)[nH]c1=O`, 12.1%; for `Cc1nc2ccccn2c1C(=O)N/N=C/c1ccc(F)cc1`, 8.5%.
For `COc1cccc(/C=N/NC(=O)CC2C(=O)NN=C2C)c1O` (stereo not shown) the value was -9.68%; for `CN1CCN(S(=O)(=O)c2ccc(=O)[nH]c2)CC1`, 10.3%; for `CC1(C)Cc2c(sc3c2c(=N)n(Cc2ccco2)c(=O)n3CC(=O)Nc2ccccc2)CO1`, 9.98%.
For `COc1ccc(CCNC(=O)CN2C(=O)COc3ccc(S(=O)(=O)N4CCCC4)cc32)cc1OC` the value was 16.9%.
For the compound `Cc1ccc(C(=O)NNC(=O)c2ccc(S(=O)(=O)N3CCOCC3)cc2)cc1`, the “hERG current change (%, negative = inhibition) at 1uM” value worked out at 8.19%.
For `Cc1c(NC(=O)Nc2ccc(C(C)C)cc2)c(=O)n(-c2ccccc2)n1C` the value was 8.33%; for `CCCCCn1c(=O)c(C(=O)Nc2cccc(C)n2)c(O)c2ccccc21`, 18.9%.
As to `CCN1CCN(C(=O)/C=C/c2cccc(Cl)c2)CC1`, the “hERG current change (%, negative = inhibition) at 1uM” value was 10.4%.
For `Cc1ccc2sc(N3CCN(C(=O)c4ccc([N+](=O)[O-])o4)CC3)nc2c1C` the value was 9.37%.
Then `CSc1ccccc1NC(=O)c1cc(-c2cccs2)on1`, with 11.4%.
As to `Cc1ccc(-c2nc3ccccc3nc2-c2ccccc2)cc1`, the “hERG current change (%, negative = inhibition) at 1uM” value is reported as 18.9%.
Then `O=C1CCC2(CC1)NC(=O)N(c1ccccc1)N2`, with 14.9%; and `CCOC(=O)/C(=N\Nc1ccccc1Cl)N1CCN(Cc2ccccc2)CC1`, with 14.3%.
Then `Cc1cccc(N(CC(=O)NCc2ccc3c(c2)OCO3)C(=O)CCC(=O)Nc2ccccn2)c1`, with 4.35%; and `CC(C)(O)CC[C@H](OC(=O)c1ccccc1)[C@](C)(O)[C@H]1CC[C@@]2(O)C3=CC(=O)[C@@H]4C[C@@H](O)[C@H](O)C[C@]4(C)C3CC[C@]12C` (stereo partly shown), with 15.3%; and `CC(C)CN(CC(C)C)C(=O)Cc1coc2ccc3ccccc3c12`, with 6.52%.
For `O=C(C1CCC(=O)N(C2CCCCCC2)C1)N1CCN(c2ccccc2Cl)CC1` (stereo not shown) the value was -2.5%; for `CCCCNC(=O)Cn1c(=O)c2c(ncn2CC)n(Cc2ccccc2)c1=O`, 10.1%; for `COc1ccc(C(O)(C(C)C)C(CN2CCOCC2)c2ccccc2)cc1.Cl` (stereo not shown), 6.65%.
On to `COc1ccc(CCn2c(=N)c(S(=O)(=O)c3ccccc3)cc3c(=O)n4ccccc4nc32)cc1`, for which the “hERG current change (%, negative = inhibition) at 1uM” value was 10.8%.
As for `FC(F)(F)c1nc2ccccc2[nH]1`, the “hERG current change (%, negative = inhibition) at 1uM” value stood at 11.5%.
Regarding `Cc1ccc(S(=O)(=O)N2CN(Cc3ccco3)c3nc4ccccc4nc32)cc1`, the “hERG current change (%, negative = inhibition) at 1uM” value amounted to 0.909%.
In the case of `Cc1ccc(C(=O)Nc2ccc(N3CCN(S(C)(=O)=O)CC3)cc2)cc1C`, the “hERG current change (%, negative = inhibition) at 1uM” value is reported as 15.4%.
For `CC1(C(=O)O)CCC(C(=O)NCCc2ccccc2)C1(C)C` (stereo not shown) the value was 14.5%; for `Cc1cc(C(=O)COC(=O)c2nccnc2N)c(C)n1C`, 14.9%.
Then `N#Cc1ccccc1OCc1cccc(S(=O)(=O)N2CCOCC2)c1`, with 11.3%.
For `Cc1c(C(=O)NCCSCc2cccc(C(F)(F)F)c2)cnn1-c1ccc(Cl)cc1` the value was 1.51%; for `CCOC(=O)c1cn(CC)c2cc(N3CCSCC3)c(F)cc2c1=O`, -11.1%; for `COc1ccc(C)cc1Nc1nc(C)nc2c1oc1ccccc12.Cl`, 22.3%.
For the compound `CN(c1ccc(C(=O)Nc2ccccn2)cc1)S(=O)(=O)c1ccccc1`, the “hERG current change (%, negative = inhibition) at 1uM” value is reported as 6.58%.
Then `Cc1ccc2nc(NC(=O)CN3C(=O)NC4(CCCCC4)C3=O)sc2c1`, with 2.67%.
For `COc1ccc(OC)c(NC(=O)CSc2nc3c(c(=O)n(C)c(=O)n3C)n2C)c1` the value was 7.54%; for `Cc1ccc(-n2ncc3c2CCCC3NC(=O)CCC2=NNC(=O)CC2)cc1C` (stereo not shown), 7.4%; for `COCCCNC(=O)c1ccc2c(c1)CCN2S(C)(=O)=O`, -20.5%.
As to `CC(CC1C(C#N)=C(N)OC2=C1C(=O)CCC2)c1ccccc1` (stereo not shown), the “hERG current change (%, negative = inhibition) at 1uM” value was -5.8%.
For `CCOC(=O)C1CCCN(C(=O)c2cc(CN3C(=O)c4ccccc4C3=O)ccc2OC)C1` (stereo not shown) the value was 16.9%; for `O=C(COC(=O)/C=C/c1ccc([N+](=O)[O-])cc1)NC1CCCCC1`, 3.11%; for `CC(Sc1ccc(Cl)cc1)C(=O)Nc1ccc(S(=O)(=O)N2CCOCC2)cc1` (stereo not shown), 5.79%.
For `COC(=O)C1=C(c2cc3ccccc3s2)C[C@@H]2CC[C@H]1N2C(=O)NC(C)C` the value was -8.6%.
For `CCOC(=O)c1sc(NC(=O)CCC(=O)O)nc1C` the value was 17.1%; for `COc1cccc(NC(=O)CN(C)C(=O)c2c(C)nn(Cc3ccc(C)cc3)c2Cl)c1`, 6.87%; for `Cc1cc(C)c2nc(SCC(=O)NCCN3C(=O)CSC3=O)cc(C)c2c1`, 6.41%.
As to `CC1CCN(C(=O)COC(=O)c2ccc(=O)n(Cc3ccccc3)n2)CC1`, the “hERG current change (%, negative = inhibition) at 1uM” value was 3.45%.
Consider `COc1ccccc1N1C(=NC(=O)COc2ccccc2)SC2CS(=O)(=O)CC21` (stereo not shown), for which the “hERG current change (%, negative = inhibition) at 1uM” value is recorded as 20.3%.
Then `CCc1ccc(NC(=O)C(=O)NCC2CCCN2S(=O)(=O)c2cccs2)cc1` (stereo not shown), with 11.9%; and `COc1ccc(-c2cc3c(=O)n(CC(=O)Nc4cccc(Cl)c4)ncn3n2)cc1`, with 14.8%; and `COc1ccc(S(=O)(=O)N/N=C(/C)c2ccncc2)c(OC)c1`, with 1.74%.
For `CCOc1ccc(OCCC(=O)OCC(=O)N2CCN(c3ccc(OC)cc3)CC2)cc1` the value was 11.5%; for `CCC1CCCCN1C(=S)NC(=O)c1ccc([N+](=O)[O-])cc1` (stereo not shown), 10%; for `Cn1c(=O)c2c(ncn2CC(=O)N/N=C/C=C\c2ccccc2[N+](=O)[O-])n(C)c1=O`, 3.02%.
Then `COc1cccc(C(=O)N/N=C(\C)c2ccc(NC(=O)Cc3ccccc3)cc2)c1OC`, with 14.9%; and `CCN(CC)C(c1ccc(F)cc1)c1nnnn1CC1CCCO1.Cl` (stereo not shown), with 16.1%.
Take `Cc1ccc2oc(C(=O)N(Cc3ccc(N(C)C)cc3)C3CCS(=O)(=O)C3)c(C)c2c1` (stereo not shown): the “hERG current change (%, negative = inhibition) at 1uM” value was determined as 1.31%.
Consider `COc1ccc(CNC(=O)c2sc(=S)n(-c3ccccc3)c2N)cc1`, for which the “hERG current change (%, negative = inhibition) at 1uM” value was determined as 4.76%.
